Test results published in PubChem BioAssay AID485313 (National Center for Advancing Translational Sciences (NCATS), 2010).
Out of some 320,000 compounds screened, about 7,600 (2.4%) were called active. The shares of active, inactive and inconclusive entries below differ from those in the screen. Calls follow the shape of the dose curve; as a rule, active = well fitted activation curve with a large enough effect; inconclusive = small, poorly fitted or top-dose-only effect; inactive = no such curve, though single readings can be large or run the other way. No potency is given beside an inconclusive call; the fits are too rough.

Test: qHTS Assay for NPC1 Promoter Activators; also: nearly all actives have a fitted effect of over 60% in size
Conditions: Huh7 NPC1 promoter luciferase reporter, 24 h; series mostly up to 9.22 µM
Procedure, shortened: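 Luminescence read-out of NPC1 promoter-driven luciferase in stably transfected Huh7 cells; compounds delivered in DMSO and left 24 h at 37C, 5% CO2, qHTS titration format.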
Potency is read from the fitted curve at half-maximal effect; tags tell the direction and shape of the fitted curve.

SMILES | Potency
O=[N+]([O-])c1ccc(-c2nc3ccc([N+](=O)[O-])cc3[nH]2)cc1 | active: 1.58 µM
O=C(Nc1nc2cc3c(cc2s1)OCCO3)c1ccc(N2C(=O)CCC2=O)cc1 | inconclusive [activator, single point]
CC1=Nc2ccccc2/C1=C/c1sc(=S)n(-c2cccc(C(=O)O)c2)c1O | inactive
CC1CCCN(C(=S)NCCc2ccccc2)C1 (stereo unspecified) | inconclusive [activator, single point]
COc1ccc(C(=O)Nc2cccc(N(C)S(C)(=O)=O)c2)cc1OC | inconclusive [activator, single point]
Cc1cccc(C(=O)NCCc2ccccc2)c1 | active: 1.41 µM
CCn1cc([N+](=O)[O-])c(C(=O)Nc2ccc3c(c2)OCCO3)n1 | inconclusive [activator, partial curve]
CC(C)CN1CCC(=O)N(CCOc2ccccc2)CC1 | inconclusive [activator, partial curve]
Cc1ccc(/C=N/Nc2cccc(C(=O)O)c2)s1 | active: 0.0891 µM
COc1ccc(NC(=O)c2ccc3c(c2)OCO3)cc1Cl | active: 0.891 µM
Cc1ccc(NC(=O)c2ccc(OC(F)F)cc2)cc1S(=O)(=O)N(C)C | inactive
COc1ccc(-c2csc(N)n2)cc1 | inconclusive [activator, partial curve]
Oc1c(C=NCc2ccccc2)sc2ccccc12 | inconclusive [activator, single point]
CN1CCN(C(=S)c2ccc(-c3cccc(Cl)c3Cl)o2)CC1 | inconclusive [activator, single point]
c1ccc(-c2noc(-c3cccc4ccccc34)n2)cc1 | inactive
CCOc1ccc(C(=O)Nc2ccc3[nH]ncc3c2)cc1 | active: 1.26 µM
Cc1ccc(C(=O)CSc2nnc3n2CCCCC3)s1 | inconclusive [activator, single point]
CC(=O)N1N=C(c2ccc(C)cc2)OC1c1ccc(C(C)C)cc1 (stereo unspecified) | active: 2.51 µM
CS(=O)(=O)c1cnc2c(-c3ccsc3)cnn2c1N | active: 2.82 µM
COc1ccc(-c2nc3ccccc3n2OC(C)C(=O)O)cc1 (stereo unspecified) | inactive
CSc1ccc(S(=O)(=O)NCc2ccc(Cl)cc2Cl)cc1 | inconclusive [activator, single point]
COC(=O)c1ccc(NC(=O)CN(c2ccc(OC)cc2)S(C)(=O)=O)cc1 | inconclusive [activator, partial curve]
Cc1nc2cc3ccccc3cc2c(=O)[nH]1 | inconclusive [activator, partial curve]
Cc1ccc(-n2nc3cc(C)c(NC(=O)c4cccnc4)cc3n2)cc1 | inconclusive [activator, partial curve]
COc1ccc(C(=O)C2CCCN(C(=O)C3=CCCC3)C2)cc1OC (stereo unspecified) | inactive
O=C(COC(=O)/C=C/c1ccccc1[N+](=O)[O-])Nc1ccc(OCc2ccccc2)cc1 | inconclusive [activator, single point]

SMILES | Potency
COc1ccc(OC)c(N=c2oc3c(OC)cccc3cc2C(=O)NCc2ccco2)c1 | inconclusive [activator, partial curve]
COc1cc2ccccc2cc1C(=O)Nc1ccc(N2CCN(C)CC2)cc1 | inconclusive [activator, partial curve]
Cc1c(C)c(C)c(S(=O)(=O)N2CCNCC2)c(C)c1C | inactive
C#CCN(C)CCCOc1ccc(Cl)cc1Cl | inconclusive [activator, partial curve]
Cn1c(=O)c2c(nc(Sc3ncccn3)n2Cc2ccc(Cl)cc2)n(C)c1=O | inactive
O=C(COC(=O)CNS(=O)(=O)c1ccc(F)c(F)c1F)NCCc1ccccc1 | inconclusive [activator, single point]
Nc1nc(CSC(=S)N2CCOCC2)nc(Nc2ccccc2)n1 | inconclusive [activator, partial curve]
CN(C)c1ccc(-c2nnc(-c3cccnc3)o2)cc1 | active: 1.12 µM
O=S(=O)(c1ccc(-c2nc3ccccc3s2)cc1)N1CCCC1 | inconclusive [activator, partial curve]
O=C(/C=C/c1ccco1)Nc1ccccn1 | inconclusive [activator, partial curve]
Cc1cc2ccccc2n1CCNC(=O)c1cccs1 | inconclusive [activator, partial curve]
CCOc1ccc(-c2ccc(SCC(=O)NCC3CCCO3)nn2)cc1 (stereo unspecified) | inconclusive [activator, single point]
CC1CN/C(=C\C(=O)c2ccc(Br)cc2)C(=O)N1 (stereo unspecified) | active: 0.891 µM
CSc1ccc(/C=N/NC(=O)c2ccc(O)cc2)cc1 | inconclusive [activator, single point]
Cc1cc2ccccc2n1CCNC(=O)C1CCCCC1 | inactive
CCN(C(=O)COC(=O)c1cccnc1Nc1ccccc1F)C1CCS(=O)(=O)C1 (stereo unspecified) | inconclusive [activator, partial curve]
COc1ccc(NC(=O)c2ccc3nc(C)sc3c2)cc1 | active: 1 µM
COc1ccc(Cl)cc1NC(=O)c1cc(-c2ccccc2)on1 | inconclusive [activator, single point]
CCCCc1nc(NCCN2CCOCC2)c(C#N)c2c1COC(C)(C)C2 | inactive
CCOC(=O)c1cc(CC)sc1NC(=O)CN1CCN(C(=O)c2ccco2)CC1 | inactive
CC(=O)Nc1ccc(NC(=O)CSc2nnc(NC(=O)c3cccc(F)c3)s2)cc1 | inconclusive [activator, partial curve]
COc1ccc(NC(=O)Nc2nnc(C(C)C)s2)cc1 | active: 3.55 µM
O=C(CCSc1ccc(Cl)cc1)N1CCCCCC1 | inconclusive [activator, partial curve]
COc1ccc(C(=O)CN2C(=O)c3ccccc3C2=O)cc1 | inconclusive [activator, single point]
Cc1nc2nc(-c3ccc(F)cc3)cn2nc1C | inconclusive [activator, partial curve]
Cc1nn(-c2ccc(N3CCCCC3)nn2)c(C)c1CCC(=O)Nc1cc(F)ccc1F | inconclusive [activator, partial curve]

SMILES | Potency
Oc1ccccc1-c1nc2c3ccccc3c3ccccc3c2[nH]1 | inconclusive [activator, partial curve]
C=CCn1c(SCC(=O)NCC2CCCO2)nc2c([nH]c3ccccc32)c1=O (stereo unspecified) | inactive
COc1ccc(NC(=O)CSCC(=O)N=c2sccn2C)cc1 | inactive
O=C1/C(=C/N(C(=O)c2ccco2)c2ccc(Br)cc2)Sc2ccccc21 | inconclusive [activator, single point]
O=C(c1ccc(-c2nnc(Nc3ccccc3)c3ccccc23)cc1)N1C[C@H]2C[C@H](C1)c1cccc(=O)n1C2 | inconclusive [activator, single point]
CCS(=O)(=O)N1Cc2ccccc2CC1C(=O)N1CCN(c2ccccc2)CC1 (stereo unspecified) | inactive
O=[N+]([O-])c1ccccc1-c1nc(-c2ccc(Br)o2)no1 | active: 3.16 µM
O=C(Nc1ccc2ccccc2n1)c1ccccc1Cl | active: 0.708 µM
O=C(NC(=S)Nc1ccccc1N1CCCCC1)c1ccco1 | inactive
COc1ccc(CCNC(=O)CCn2c(SCC(=O)N3CCCC3)nc3ccccc3c2=O)cc1OC | inactive
O=C(Nc1ccccc1)OCCCc1ccccc1 | inconclusive [activator, single point]
Clc1ccc(C2=NNC(=NCc3ccccc3)SC2)cc1 | inconclusive [activator, partial curve]
CCOc1ccc(NC(=O)CN(c2ccc(OC)cc2)S(C)(=O)=O)cc1 | inconclusive [activator, single point]
CC(=O)c1c(C)n(-c2ccccc2)c2ccc(OCC(N)=O)cc12 | inactive
O=C(O)CCCNC(=O)CCCNC(=O)C(c1ccccc1)c1ccccc1 | inactive
Cc1cccc(-n2cc(-c3ccc([N+](=O)[O-])cc3)[nH]c2=S)c1 | inconclusive [activator, partial curve]
COc1cccc2cc(C(=O)Nc3ccccc3C)/c(=N/O)oc12 | inconclusive [activator, single point]
O=C(Nc1ccc(F)cc1)c1ccc2nsnc2c1 | inconclusive [activator, single point]
COc1cc(C)ccc1OCc1cc(C(=O)N2CCN(C3CCCCC3)CC2)no1 | inconclusive [activator, single point]
COc1ccccc1C(=O)Nc1ccc(Br)cc1C | inconclusive [activator, single point]
COc1cccc(OCc2cc(C(=O)N3CCN(C(=O)c4ccco4)CC3)no2)c1 | inconclusive [activator, single point]
CC1Cc2ccccc2N1C(=O)CSc1ncccc1C(=O)O (stereo unspecified) | inconclusive [activator, single point]
COc1ccccc1C(=O)Nc1nsc(-c2ccccc2)n1 | inconclusive [activator, partial curve]
CC(C)(C)c1cc(C(=O)N/N=C/c2ccco2)n[nH]1 | inconclusive [activator, partial curve]
